Measurements reported in patent US10538555B2, “Macrocyclic inhibitors of the PD-1/PD-L1 and CD80(B7-1)/PD-L1 protein/protein interactions” (BRISTOL-MYERS SQUIBB COMPANY, priority 2014, dated 2020).
At least one compound was matched to its structure with a doubt left. Where a SMILES comes first, the peptide text is derived from it. Bridges are numbered along the chain shown (N, C = ends). [ ]: non-standard residue; d: D form. Phe(3,4,5-F3) = N[C@@H](Cc1cc(F)c(F)c(F)c1)C(=O)O; Phe(3,4-F2) = N[C@@H](Cc1ccc(F)c(F)c1)C(=O)O; NMePhe(4-F) = CN[C@@H](Cc1ccc(F)cc1)C(=O)O; Phe(4-F) = N[C@@H](Cc1ccc(F)cc1)C(=O)O; d(cisHyp) = O=C(O)[C@H]1C[C@@H](O)CN1; NMeY = CN[C@@H](Cc1ccc(O)cc1)C(=O)O; Hyp = O=C(O)[C@@H]1C[C@@H](O)CN1; NMeF = CN[C@@H](Cc1ccccc1)C(=O)O; dNMeF = CN[C@H](Cc1ccccc1)C(=O)O; NMeL = CN[C@@H](CC(C)C)C(=O)O; NMeNle = CCCC[C@H](NC)C(=O)O; dPip = O=C(O)[C@H]1CCCCN1; hSer = N[C@@H](CCO)C(=O)O; NMeA = CN[C@@H](C)C(=O)O; Orn = NCCC[C@H](N)C(=O)O; Dab = NCC[C@H](N)C(=O)O; Dap = NC[C@H](N)C(=O)O

The compounds below were run against T1, Human PD-L1/PD-1 (Homo sapiens, UniProt Q9NZQ7) (assay: HTRF Human PD-L1/PD-1 binding assay (PD-1-Ig/PD-L1-His)). Details: PD-L1-His 10 nM, PD-1-Ig 20 nM; class symbol; read-out: HTRF Human PD-L1/PD-1 Binding Assay IC50 Range.
T1 construct: TVMV protease cleavage site (C); made in house; host or cells: HEK293T cells
T1 sequence (Q9NZQ7 with tags, fused parts or gaps): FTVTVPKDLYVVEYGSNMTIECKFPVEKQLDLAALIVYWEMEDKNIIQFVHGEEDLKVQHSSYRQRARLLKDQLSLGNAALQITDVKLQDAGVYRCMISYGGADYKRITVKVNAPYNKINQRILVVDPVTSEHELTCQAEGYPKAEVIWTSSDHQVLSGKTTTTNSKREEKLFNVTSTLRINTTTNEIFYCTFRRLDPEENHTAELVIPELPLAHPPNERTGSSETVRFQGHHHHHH
Text: Methods for Testing the Ability of Macrocyclic Peptides to Compete for the Binding of PD-1 to PD-L1 Using Homogenous Time-Resolved Fluorescence (HTRF) Binding Assays
The ability of the macrocyclic peptides of the present disclosure to bind to PD-L1 was investigated using a PD-1/PD-L1 Homogenous Time-Resolved Fluorescence (HTRF) binding assay.
Homogenous Time-Resolved Fluorescence (HTRF) Assays of Binding of Soluble PD-1 to Soluble PD-L1. Soluble PD-1 and soluble PD-L1 refers to proteins with carboxyl-end truncations that remove the transmembrane-spanning regions and are fused to heterologous sequences, specifically the Fc portion of the human immunoglobuling G sequence (Ig) or the hexahistidine epitope tag (His). All binding studies were performed in an HTRF assay buffer consisting of dPBS supplemented with 0.1% (w/v) bovine serum albumin and 0.05% (v/v) Tween-20. For the PD-1-Ig/PD-L1-His binding assay, inhibitors were pre-incubated with PD-L1-His (10 nM final) for 15 m in 4 μl of assay buffer, followed by addition of PD-1-Ig (20 nM final) in 1 μl of assay buffer and further incubation for 15 m. PD-L1 fusion proteins from either human, cynomolgus macaques, or mouse were used. HTRF detection was achieved using europium crypate-labeled anti-Ig monoclonal antibody (1 nM final) and allophycocyanin (APC) labeled anti-His monoclonal antibody (20 nM final). Antibodies were diluted in HTRF detection buffer and 5 μl was dispensed on top of binding reaction. The reaction was allowed to equilibrate for 30 minutes and signal (665 nm/620 nm ratio) was obtained using an EnVision fluorometer. Additional binding assays were established between PD-1-Ig/PD-L2-His (20 and 5 nM, respectively), CD80-His/PD-L1-Ig (100 and 10 nM, respectively) and CD80-His/CTLA4-Ig (10 and 5 nM, respectively). Competition studies between biotinylated Compound No. 71 and human PD-L1-His were performed as follows. Macrocyclic peptide inhibitors were pre-incubated with PD-L1-His (10 nM final) for 60 minutes in 4 μl of assay buffer followed by addition of biotinylated Compound No. 71 (0.5 nM final) in 1 μl of assay buffer. Binding was allowed to equilibrate for 30 minutes followed by addition of europium crypated labeled Streptavidin (2.5 pM final) and APC-labeled anti-His (20 nM final) in 5 μl of HTRF buffer. The reaction was allowed to equilibrate for 30 m and signal (665 nm/620 nm ratio) was obtained using an EnVision fluorometer.
Recombinant Proteins. Carboxyl-truncated human PD-1 (amino acids 25-167) with a C-terminal human Ig epitope tag [hPD-1 (25-167)-3S-IG] and human PD-L1 (amino acids 18-239) with a C-terminal His epitope tag [hPD-L1([…])-tobacco vein mottling virus protease cleavage site (TVMV)-His] were expressed in HEK293T cells and purified sequentially by rProteinA affinity chromatography and size exclusion chromatography.
`CCCC[C@H]1C(=O)N2CCC[C@@H]2C(=O)N[C@@H](CC(=O)O)C(=O)N[C@@H](C(C)C)C(=O)N(C)[C@@H](CC(C)C)C(=O)N[C@@H](Cc2ccc(O)cc2)C(=O)N2CCCC[C@@H]2C(=O)N[C@@H](Cc2c[nH]c3ccccc23)C(=O)N[C@@H](Cc2ccc(O)cc2)C(=O)N[C@@H](CCCN)C(=O)N[C@H](C(=O)NCC(N)=O)CSCC(=O)N[C@@H](Cc2ccc(F)cc2)C(=O)N(C)[C@@H](Cc2ccccc2)C(=O)N1C` [Example 9252] ({CH2CO}-[Phe(4-F)][NMeF][NMeNle][dP]DV[NMeL]Y[dPip]WY[Orn]CG-NH2; thioether N-13) gave an IC50 of 100 to 990 nM.
With `CCCC[C@H]1C(=O)N2C[C@H](O)C[C@@H]2C(=O)N[C@@H](CC(=O)O)C(=O)N[C@@H](C(C)C)C(=O)N(C)[C@@H](Cc2ccccc2)C(=O)N[C@@H](CCC(N)=O)C(=O)N2C[C@H](O)C[C@@H]2C(=O)N[C@@H](Cc2c[nH]c3ccccc23)C(=O)N[C@@H](Cc2ccc(O)cc2)C(=O)N[C@@H](CC(C)C)C(=O)N[C@H](C(=O)NCC(N)=O)CSCC(=O)N[C@@H](Cc2ccc(F)c(F)c2)C(=O)N(C)[C@@H](Cc2ccccc2)C(=O)N1C` [Example 9290] ({CH2CO}-[Phe(3,4-F2)][NMeF][NMeNle][d(cisHyp)]DV[NMeF]Q[d(cisHyp)]WYLCG-NH2; thioether N-13) the IC50 was 1 to 9.9 nM.
With `CCCC[C@H]1C(=O)N2C[C@H](O)C[C@@H]2C(=O)N[C@@H](CC(=O)O)C(=O)N[C@@H](C(C)C)C(=O)N(C)[C@H](Cc2ccccc2)C(=O)N[C@@H](CCC(N)=O)C(=O)N2C[C@H](O)C[C@@H]2C(=O)N[C@@H](Cc2c[nH]c3ccccc23)C(=O)N[C@@H](Cc2ccc(O)cc2)C(=O)N[C@@H](CC(C)C)C(=O)N[C@H](C(=O)NCC(N)=O)CSCC(=O)N[C@@H](Cc2ccc(F)c(F)c2)C(=O)N(C)[C@@H](Cc2ccccc2)C(=O)N1C` [Example 9291] ({CH2CO}-[Phe(3,4-F2)][NMeF][NMeNle][d(cisHyp)]DV[dNMeF]Q[d(cisHyp)]WYLCG-NH2; thioether N-13) the IC50 was 1 to 9.9 nM.
With `CCCC[C@H]1C(=O)N(C)[C@@H](CCCC)C(=O)N[C@@H](CCCNC(=N)N)C(=O)N[C@H](C(=O)NCC(N)=O)CSCC(=O)N[C@@H](Cc2ccc(O)cc2)C(=O)N(C)[C@@H](C)C(=O)N[C@@H](CC(N)=O)C(=O)N2CCC[C@H]2C(=O)N[C@@H](CO)C(=O)N[C@@H](CCO)C(=O)N2C[C@H](O)C[C@H]2C(=O)N[C@@H](Cc2c[nH]c3ccccc23)C(=O)N[C@@H](CO)C(=O)N[C@@H](Cc2c[nH]c3ccccc23)C(=O)N1C` [Example 10037] ({CH2CO}-Y[NMeA]NPS[hSer][Hyp]WSW[NMeNle][NMeNle]RCG-NH2; thioether N-14) the IC50 was 1 to 9.9 nM.
`CCCC[C@H]1C(=O)N2CCC[C@@H]2C(=O)N[C@@H](CC(=O)O)C(=O)N[C@@H](C(C)C)C(=O)N(C)[C@@H](Cc2ccccc2)C(=O)N[C@@H](CC(=O)O)C(=O)N2CCCC[C@@H]2C(=O)N[C@@H](Cc2c[nH]c3ccccc23)C(=O)N[C@@H](Cc2ccc(O)cc2)C(=O)N[C@@H](CCC(N)=O)C(=O)N[C@H](C(=O)NCC(N)=O)CSCC(=O)N[C@@H](Cc2cc(F)c(F)c(F)c2)C(=O)N(C)[C@@H](Cc2ccc(F)cc2)C(=O)N1C` [Example 10575] ({CH2CO}-[Phe(3,4,5-F3)][NMePhe(4-F)][NMeNle][dP]DV[NMeF]D[dPip]WYQCG-NH2; thioether N-13) gave an IC50 of 1 to 9.9 nM.
Compound `CCCC[C@H]1C(=O)N2C[C@H](O)C[C@@H]2C(=O)N[C@@H](CC(=O)O)C(=O)N[C@@H](C(C)C)C(=O)N(C)[C@@H](Cc2ccccc2)C(=O)N[C@@H](CCC(=O)O)C(=O)N2CCCC[C@@H]2C(=O)N[C@@H](Cc2c[nH]c3ccccc23)C(=O)N[C@@H](Cc2ccc(O)cc2)C(=O)N[C@@H](CCN)C(=O)N[C@H](C(=O)NCC(N)=O)CSCC(=O)N[C@@H](Cc2cc(F)c(F)c(F)c2)C(=O)N(C)[C@@H](Cc2ccc(F)cc2)C(=O)N1C` [Example 10588] ({CH2CO}-[Phe(3,4,5-F3)][NMePhe(4-F)][NMeNle][d(cisHyp)]DV[NMeF]E[dPip]WY[Dab]CG-NH2; thioether N-13) has an IC50 of 1 to 9.9 nM.
For `CCCC[C@H]1C(=O)N2C[C@H](O)C[C@@H]2C(=O)N[C@@H](CC(=O)O)C(=O)N[C@@H](C(C)C)C(=O)N(C)[C@@H](Cc2ccccc2)C(=O)N[C@@H](CCC(=O)O)C(=O)N2CCCC[C@@H]2C(=O)N[C@@H](Cc2c[nH]c3ccccc23)C(=O)N[C@@H](Cc2ccc(O)cc2)C(=O)N[C@@H](CN)C(=O)N[C@H](C(=O)NCC(N)=O)CSCC(=O)N[C@@H](Cc2cc(F)c(F)c(F)c2)C(=O)N(C)[C@@H](Cc2ccc(F)cc2)C(=O)N1C` [Example 10589] ({CH2CO}-[Phe(3,4,5-F3)][NMePhe(4-F)][NMeNle][d(cisHyp)]DV[NMeF]E[dPip]WY[Dap]CG-NH2; thioether N-13), the IC50 was 1 to 9.9 nM.
For `CCCC[C@H]1C(=O)N2CCC[C@@H]2C(=O)N[C@@H](CC(=O)O)C(=O)N[C@@H](C(C)C)C(=O)N(C)[C@@H](Cc2ccccc2)C(=O)N[C@@H](CCC(=O)O)C(=O)N2CCCC[C@@H]2C(=O)N[C@@H](Cc2c[nH]c3ccccc23)C(=O)N[C@@H](Cc2ccc(O)cc2)C(=O)N[C@@H](CN)C(=O)N[C@H](C(=O)NCC(N)=O)CSCC(=O)N[C@@H](Cc2cc(F)c(F)c(F)c2)C(=O)N(C)[C@@H](Cc2ccc(O)cc2)C(=O)N1C` [Example 10604] ({CH2CO}-[Phe(3,4,5-F3)][NMeY][NMeNle][dP]DV[NMeF]E[dPip]WY[Dap]CG-NH2; thioether N-13), the IC50 was 1 to 9.9 nM.
With `CCCC[C@H]1C(=O)N2C[C@H](O)C[C@@H]2C(=O)N[C@@H](CC(=O)O)C(=O)N[C@@H](C(C)C)C(=O)N(C)[C@@H](Cc2ccccc2)C(=O)N[C@@H](CCC(=O)O)C(=O)N2C[C@H](O)C[C@@H]2C(=O)N[C@@H](Cc2c[nH]c3ccccc23)C(=O)N[C@@H](Cc2ccc(O)cc2)C(=O)N[C@@H](CCC(N)=O)C(=O)N[C@H](C(=O)NCC(N)=O)CSCC(=O)N[C@@H](Cc2cc(F)c(F)c(F)c2)C(=O)N(C)[C@@H](Cc2ccc(O)cc2)C(=O)N1C` [Example 10636] ({CH2CO}-[Phe(3,4,5-F3)][NMeY][NMeNle][d(cisHyp)]DV[NMeF]E[d(cisHyp)]WYQCG-NH2; thioether N-13) the IC50 was 1 to 9.9 nM.
Work on `CCCC[C@H]1C(=O)N(C)[C@@H](CCCC)C(=O)N[C@@H](CCCNC(=N)N)C(=O)N[C@H](C(=O)NCC(N)=O)CSCC(=O)N[C@@H](Cc2ccc(O)cc2)C(=O)N(C)[C@@H](C)C(=O)N[C@@H](CC(=O)O)C(=O)N2CCC[C@H]2C(=O)N[C@@H](Cc2c[nH]cn2)C(=O)N[C@@H](CN)C(=O)N2C[C@H](O)C[C@H]2C(=O)N[C@@H](Cc2c[nH]c3ccccc23)C(=O)N[C@@H](CO)C(=O)N[C@@H](Cc2c[nH]c3ccccc23)C(=O)N1C` [Example 11004] ({CH2CO}-Y[NMeA]DPH[Dap][Hyp]WSW[NMeNle][NMeNle]RCG-NH2; thioether N-14) yielded an IC50 of 10 to 99.9 nM.
